{"source": "PubChem BioAssay AID1345083", "about": "(National Center for Advancing Translational Sciences (NCATS), 2018)", "note": "Screen size: about 94,000 compounds; about 6,200 (6.6%) were called active. Inconclusive means that the source gave no clear call. Such entries were picked first, then a sample of the others. Calls follow the shape of the dose curve; as a rule, active = well fitted inhibition curve with a large enough effect; inconclusive = small, poorly fitted or top-dose-only effect; inactive = flat fitted curve, though single readings scatter. Potencies beside an inconclusive call are fits to weak or partial responses and may not hold up. % is scaled to controls: 0 for no effect and ±100 for the full control effect; potency is read from the fitted curve at half-maximal effect; tags tell the direction and shape of the fitted curve.", "data": [{"test": "Cytotoxic Profiling in HEK 293 Cell Line of Diverse Libraries Using Quantitative High-Throughput Screening; also: nearly all actives have a fitted effect of over 60% in size", "conditions": "HEK 293 viability, ATP luminescence (CellTiter-Glo), 48-72 h; activity change, negative = cytotoxicity: at 115 µM (top of the series) unless noted; series mostly up to 115 µM", "how_it_was_run": "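ATP-coupled CellTiter-Glo luminescence served as viability read-out, recorded 10 min after reagent addition at room temperature. HEK 293 cells, 250 cells/well, had been incubated with pintool-transferred compound for 48 or 72 hr at 37 degree Celsius.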", "values": [{"compound": "CC(C)n1cc2cc(C(=O)Nc3ccc4c(c3)OCCO4)sc2c1", "Potency": "active: 35.5 µM"}, {"compound": "COCCN1CCCN(C(=O)c2cccc(F)c2)c2ccccc21", "Potency": "inconclusive: 50.1 µM [inhibitor, partial curve, poor fit]"}, {"compound": "COc1ccc(NC(=O)c2cc(-c3ccc[nH]3)n[nH]2)cc1", "activity change, negative = cytotoxicity": "inactive: -3.09%"}, {"compound": "Cc1cc(C)n(-c2ccc(NC(=O)CC[C@H]3NC(=O)c4ccccc4NC3=O)cc2)n1", "activity change, negative = cytotoxicity": "inactive: 0.189%"}, {"compound": "Cc1ccc2oc(C(=O)N[C@H]3COC[C@H]3Cc3cc(C)no3)c(C)c2c1", "activity change, negative = cytotoxicity": "inactive: 0.942%"}, {"compound": "Cc1nc2scc(CC(=O)NCc3ccco3)n2c(=O)c1-c1cc(C)n(-c2ccccc2F)n1", "Potency": "inconclusive: 79.4 µM [inhibitor, single point]"}, {"compound": "O=C(NCCc1nc(-c2ccccc2)cs1)c1ccc2nccn2c1", "Potency": "active: 39.8 µM"}, {"compound": "NC(Cc1ccccc1)C(=O)N1CCC2(CC1)CN(C(=O)c1ccc(Cl)cc1)CCO2", "note": "(stereo unspecified)", "activity change, negative = cytotoxicity": "inactive: -17.1%"}, {"compound": "O=C(NCCc1cnc[nH]1)[C@@H]1C[C@H]2C(=O)NCCCCCCN(S(=O)(=O)c3cccs3)[C@H]2C1", "outcome": "inactive"}, {"compound": "COc1cccc(-c2cc(C3CCN(C(=O)Nc4ccc(F)cc4F)CC3)[nH]n2)c1", "Potency": "inconclusive: 35.5 µM [inhibitor, partial curve, poor fit]"}, {"compound": "Cn1cc2c3c(cccc31)CN(C(=O)c1ccccc1F)CC2", "Potency": "inconclusive: 79.4 µM [inhibitor, single point]"}, {"compound": "COCCNC(=O)c1nc2c(o1)CCN(Cc1cccc(F)c1F)CC2", "activity change, negative = cytotoxicity": "inactive: -45.4% [at 172 µM]"}, {"compound": "COc1cccc(CN2CCOC3CCN(Cc4ccc(C#N)cc4)CC3C2=O)c1", "note": "(stereo unspecified)", "Potency": "inconclusive: 100 µM [inhibitor, partial curve, poor fit]"}, {"compound": "CC#CCn1cc2c3c(cccc31)[C@H](CC(C)C)N[C@H](C(=O)N1CCN(CCO)CC1)C2", "Potency": "inconclusive: 126 µM [inhibitor, single point]"}, {"compound": "COc1ncccc1-c1nc2cc(C(=O)Nc3ccc(C)cc3)ccc2o1", "Potency": "inconclusive: 63.1 µM [inhibitor, full curve, poor fit]"}, {"compound": "Cc1ccccc1CCC1CCCN(C(=O)CCc2cnn(C)c2)C1", "note": "(stereo unspecified)", "Potency": "inconclusive: 25.1 µM [inhibitor, full curve, poor fit]"}, {"compound": "O=C(NCc1ccco1)C1CC(c2ccccc2)CN(C(=O)C2CCCC2)C1", "note": "(stereo unspecified)", "Potency": "inconclusive: 89.1 µM [inhibitor, single point]"}, {"compound": "Cc1ccc(C(=O)N2CCC(N3C(=O)c4c(c(C)nn4-c4ccccc4)C3C)C2)cc1", "note": "(stereo unspecified)", "Potency": "inconclusive: 5.62 µM [inhibitor, full curve, poor fit]"}, {"compound": "CCN1CCC(OCCCNC(=O)c2ccc(CC3CCN(C(C)=O)CC3)cc2)CC1", "Potency": "inconclusive: 56.2 µM [inhibitor, partial curve, poor fit]"}, {"compound": "COc1ccc(C(=O)N2CCC(c3nn(C)c(=O)n3-c3ccccc3)CC2)cc1", "outcome": "inactive"}, {"compound": "O=c1n(-c2ccc(Cl)cc2)nc2n1CCN(Cc1ccc(C(F)(F)F)cc1)C2", "Potency": "inconclusive: 79.4 µM [inhibitor, partial curve, poor fit]"}, {"compound": "COc1ccc(S(=O)(=O)N2CCc3nnc(C4CC4)n3CC2)cc1", "activity change, negative = cytotoxicity": "inactive: -20.1%"}, {"compound": "CC(=O)N1CCC2(CC1)OC(=O)N(Cc1ccc(O)cc1)C2(C)c1ccccc1", "note": "(stereo unspecified)", "activity change, negative = cytotoxicity": "inactive: -5.9% [at 172 µM]"}, {"compound": "O=C(Cn1cccc1-c1nc(-c2ccccc2)no1)Nc1ccc2c(c1)OCCO2", "Potency": "inconclusive: 100 µM [inhibitor, single point]"}, {"compound": "COc1ccc(-c2cnc3n[nH]c(-c4ccc(F)cc4C)c3n2)cc1OC", "Potency": "active: 28.2 µM"}, {"compound": "O=C(NCCCN1CCc2ccccc2C1)C1CCc2ncc(-c3ccc(F)cc3)n2C1", "note": "(stereo unspecified)", "Potency": "inconclusive: 56.2 µM [inhibitor, partial curve, poor fit]"}, {"compound": "CC(=O)N1CCNc2cc(Nc3ccc(F)cc3)ncc2C1", "Potency": "inconclusive: 100 µM [inhibitor, partial curve, poor fit]"}, {"compound": "COc1ccc(C(=O)N2CCC(N3C(=O)C(OCC4CC4)C34CCCCC4)CC2)cc1", "note": "(stereo unspecified)", "Potency": "inconclusive: 89.1 µM [inhibitor, single point]"}, {"compound": "COCCCNc1nccc(C2(c3ccccc3Cl)CCNCC2)n1", "Potency": "inconclusive: 89.1 µM [inhibitor, single point]"}, {"compound": "CN(C)c1cccc(C(=O)Nc2ccc3ncnc(N4CCCCC4)c3c2)c1", "Potency": "inconclusive: 44.7 µM [inhibitor, partial curve, poor fit]"}, {"compound": "Cc1ccc2[nH]c(CCn3cc(-c4cncnc4)nn3)nc2c1C", "Potency": "inconclusive: 89.1 µM [inhibitor, single point]"}, {"compound": "O=C(NC1CCN(c2ccnc3ccnn23)CC1)c1cncc(Br)c1", "Potency": "inconclusive: 100 µM [inhibitor, single point]"}, {"compound": "CCOc1cc(C(=O)N2CCC[C@H]2c2nc(-c3ccc(F)cc3)no2)cc(OCC)c1OCC", "Potency": "inconclusive: 56.2 µM [inhibitor, partial curve, poor fit]"}, {"compound": "O=C(NCCc1ccccc1F)c1ccc2nnc(-c3cc[nH]c3)n2c1", "Potency": "inconclusive: 89.1 µM [inhibitor, partial curve, poor fit]"}, {"compound": "Cc1cc(=O)n(CC(=O)Nc2cccc(F)c2)c(-c2ccccc2)n1", "Potency": "inconclusive: 56.2 µM [inhibitor, single point]"}, {"compound": "COc1ccccc1C(=O)NC1CCN(C(=O)c2ccc(-c3ccccc3OC)cc2)CC1", "Potency": "inconclusive: 89.1 µM [inhibitor, single point]"}, {"compound": "O=C(Nc1ccccc1)C1CCN(C(=O)c2ncn3c2COC(c2ccccc2)C3)CC1", "note": "(stereo unspecified)", "activity change, negative = cytotoxicity": "inactive: -29.7%"}, {"compound": "COc1ccc(-c2nc(C3CC(=O)N(c4ccc(OC)c(OC)c4)C3)no2)cc1OC", "note": "(stereo unspecified)", "Potency": "inconclusive: 79.4 µM [inhibitor, partial curve, poor fit]"}, {"compound": "Cc1ccc(-c2cc(N3CCCN(C(=O)Cc4cccs4)CC3)n[nH]2)cc1C", "Potency": "inconclusive: 50.1 µM [inhibitor, partial curve, poor fit]"}, {"compound": "COc1cccc(NC(=O)N2CCC(OC3CCN(S(C)(=O)=O)CC3)CC2)c1", "activity change, negative = cytotoxicity": "inactive: 2.28%"}, {"compound": "CC(C)Oc1ccc(CNC(=O)c2nnn3cc(-c4ccccc4)[nH]c(=O)c23)cc1", "Potency": "inconclusive: 89.1 µM [inhibitor, single point]"}, {"compound": "CC(C)OC(=O)N(C)Cc1cccc(N2CCN(S(=O)(=O)c3c(Cl)cccc3Cl)CC2)c1F", "Potency": "inconclusive: 15.8 µM [inhibitor, full curve, poor fit]"}, {"compound": "CN1CCCC(CN(CCc2ccccc2)C(=O)c2cc(C#N)cn2C)C1", "note": "(stereo unspecified)", "activity change, negative = cytotoxicity": "inactive: 0.896%"}, {"compound": "CCCNC(=O)N1CCCCC1c1noc(COc2ccc(F)cc2)n1", "note": "(stereo unspecified)", "Potency": "inconclusive: 79.4 µM [inhibitor, partial curve]"}, {"compound": "O=C(NC1CCN(c2ccnc3ccnn23)CC1)c1cc(F)ccc1Br", "Potency": "inconclusive: 112 µM [inhibitor, partial curve]"}, {"compound": "Cc1cc2ncc(C(=O)NCCCc3ccccc3)cn2n1", "activity change, negative = cytotoxicity": "inactive: -16.4% [at 172 µM]"}, {"compound": "O=C(NCc1ccco1)[C@@H]1Cc2nc[nH]c2CN1Cc1ccc(Cl)cc1", "Potency": "inconclusive: 112 µM [inhibitor, single point]"}, {"compound": "CCCCNC(=O)CC(c1cccc2c1OCO2)c1c[nH]c2c(CC)cccc12", "note": "(stereo unspecified)", "Potency": "active: 44.7 µM"}, {"compound": "O=[N+]([O-])c1cccc(-c2noc([C@@H]3C[C@@H](O)CN3Cc3cccs3)n2)c1", "Potency": "inconclusive: 112 µM [inhibitor, single point]"}, {"compound": "CCOc1cc(=O)n2c(c1C(=O)Nc1cccc(Br)c1)CCCC2", "Potency": "inconclusive: 56.2 µM [inhibitor, partial curve, poor fit]"}, {"compound": "N#Cc1ccc2nc([C@H]3CCN(Cc4ccccn4)C3)[nH]c2c1", "Potency": "active: 100 µM"}, {"compound": "O=C(NCc1ccccc1)C1CCN(C(=O)c2ncn3c2COC(c2ccc(F)cc2)C3)CC1", "note": "(stereo unspecified)", "activity change, negative = cytotoxicity": "inactive: 7.29%"}, {"compound": "CNC(=O)C1(N2CCC[C@H]2C(=O)NC(C)C)COC1", "activity change, negative = cytotoxicity": "inactive: -1.37% [at 230 µM]"}, {"compound": "O=C(c1cc(-c2ccc(Cl)cc2Cl)c2cccn2n1)N1CCOCC1", "Potency": "inconclusive: 44.7 µM [inhibitor, partial curve]"}, {"compound": "Cc1noc(C)c1-c1cc(-c2ccc(CO)cc2)cn2cncc12", "Potency": "inconclusive: 25.1 µM [inhibitor, full curve]"}, {"compound": "COc1ccccc1-c1ccc(C(=O)N2CCC(C(=O)NC3CCCC3)CC2)cc1", "Potency": "active: 28.2 µM"}, {"compound": "O=C(c1cccnc1)N1CCCC(c2noc(COc3ccccc3)n2)C1", "note": "(stereo unspecified)", "activity change, negative = cytotoxicity": "inactive: -12.5%"}, {"compound": "CCCn1nccc1C(=O)N1CCCC(c2[nH]ncc2Cc2ccccc2)C1", "note": "(stereo unspecified)", "Potency": "active: 50.1 µM"}, {"compound": "CCCn1cc(CNc2cc(CC)nc3c(C)c(C)nn23)cn1", "Potency": "inconclusive: 8.91 µM [inhibitor, full curve, poor fit]"}, {"compound": "CC(C)C[C@@H]1N[C@H](C(=O)NCCN2CCCC2)Cc2c[nH]c3cccc1c23", "Potency": "inconclusive: 100 µM [inhibitor, partial curve, poor fit]"}, {"compound": "Cc1cc(-c2cc3c(cn2)CN(Cc2ccc(F)c(F)c2)CCN3)ccn1", "Potency": "active: 70.8 µM"}, {"compound": "CC1=C[C@@H](CNC2CCOCC2)[C@H](C(C)C)C[C@H]1Cc1nc2ccc(F)cc2[nH]1", "Potency": "inconclusive: 100 µM [inhibitor, partial curve, poor fit]"}, {"compound": "O=C(NCc1cccs1)C1CCCCN1Cc1ccc(-c2ccsc2)cc1", "note": "(stereo unspecified)", "Potency": "active: 28.2 µM"}, {"compound": "CCn1ncc(CN(C)C(=O)c2c(C)oc3c2CN(Cc2ccc(OC)cc2)CC3)c1C", "Potency": "inconclusive: 50.1 µM [inhibitor, partial curve, poor fit]"}, {"compound": "Cc1noc(C)c1-c1cc2cc(CN(C)C)oc2c(NC(C)C)n1", "Potency": "inconclusive: 112 µM [inhibitor, partial curve]"}, {"compound": "CS(=O)(=O)N1Cc2ccccc2CC2(CCN(Cc3ccccc3)C2)C1", "note": "(stereo unspecified)", "Potency": "inconclusive: 79.4 µM [inhibitor, partial curve, poor fit]"}]}]}
